Measurements published in PubChem BioAssay AID757 (NMMLSC, 2007).
In all, about 190,000 compounds went through this assay and about 520 (0.27%) were called active. The shares of active, inactive and inconclusive entries below differ from those in the screen.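 How the source made its calls: active means GTP binding activity at least 20 points away from the 100% control level, either lower or higher; inconclusive means compound flagged as likely green fluorescent, judged across all proteins; inactive means the rest.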

target: Ras-related C3 botulinum toxin substrate 1 (Homo sapiens) (UniProt P63000); assay: wildtype Rac1 GTP binding modulators, primary screen, biochemical, GST-Rac1 beads, flow cytometry, multiplex (AID 757); conditions: fluorescent GTP binding, at 10 µM, actives lie on both sides, 0 = cold GTP competed, 100 = untreated

SMILES	GTP binding activity (% of control)
N#C/C(=C/c1ccc(-c2ccccc2)o1)c1nc(-c2cccs2)cs1	inconclusive: 144%
CCc1nnc(NC(=O)CSc2nnc(CNc3ccc(F)cc3)n2C2CCCCC2)s1	inconclusive: 138%
C=CCn1c(Cn2nnc3ccccc32)nnc1SCC(=O)N/N=C/c1cc(Br)cc(OC)c1O	inconclusive: 89%
O=C(CCNS(=O)(=O)c1cccc2nsnc12)N1CCN(c2ccccn2)CC1	active: 138% [activator]
CCOc1cc(NS(=O)(=O)c2ccc(Cl)cc2)c(OCC)cc1NC(=O)CC(C)C	inactive: 101%
CCOc1ccc(CN(C)CC(=O)Nc2cccc(C)c2)cc1OC	inconclusive: 100%
O=C(CSc1ncnc2ccccc12)NCCCO	inconclusive: 109%
CC(=O)Nc1cc2c(cc1NC(=O)Cn1nc(-c3ccccc3F)ccc1=O)OCCO2	inconclusive: 104%
O=C(Nc1cc(C(=O)N2CCCC2)ccc1N1CCCC1)c1ccccc1F	inconclusive: 106%
Cc1nn(Cc2ccccc2)c(C)c1NC(=O)CSc1nc2c(c(C(F)(F)F)n1)CCc1ccccc1-2	active: 75%
Cc1cc(C)nc(-n2nc(C)cc2NC(=O)c2cccc(S(=O)(=O)N3CCCCC3)c2)n1	inconclusive: 96%
Brc1ccc(OCc2ccccc2)c(CNCc2ccncc2)c1	inconclusive: 92%
CCOC(=O)c1c(C)[nH]c(C)c1C(=O)COc1ncnc2cc([N+](=O)[O-])ccc12	active: 63%
COc1ccccc1NC(=O)c1ccc(NC(=O)COC(=O)CCC2CCCC2)cc1	inconclusive: 94%
CS(=O)(=O)NN1C(=O)c2ccccc2NC12CCCC2	inactive: 98%
CCOC(=O)N1CCC(NC(=O)CS(=O)(=O)Cc2nc(-c3ccccc3C)oc2C)CC1	inconclusive: 107%
COc1ccccc1NC(=O)c1cccc(NC(=O)c2ccco2)c1	inconclusive: 92%
O=C(COC(=O)c1ccco1)Nc1cccc(Br)c1	inconclusive: 104%
COc1ccc(NC(=O)c2ccc3c(c2)OCO3)cc1[N+](=O)[O-]	inconclusive: 92%
COc1ccc(-n2c(SCC(=O)NCCCN3CCCC3=O)nnc2C(C)N2CCCCC2)cc1 (stereo not drawn)	inconclusive: 94%
CN(NS(=O)(=O)c1ccc(Cl)cc1)c1nc(C(F)(F)F)nc2ccccc12	inconclusive: 98%
O=C(N/N=C/c1cc2ccccc2nc1Cl)/C(=C/c1cccs1)NC(=O)c1ccccc1	inconclusive: 94%
O=c1[nH]cnc2c1C(c1ccccc1[N+](=O)[O-])c1c(nc[nH]c1=O)O2	inconclusive: 77%
